The list shows a part of the results. No stated cut-off is given here; in the data, active = 0.5 or less and inactive = the rest. Single values are uncertain, as repeats are few or missing.
What was measured:
Details in all cases: 50 µM; 24 h
[1] = system: HeLa VPS33A reporter cells; assay: relative cell viability (CellMask signal) vs DMSO (fraction of DMSO); higher = less cytotoxic;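 further: primary screen of an FDA-approved drug library in HeLa reporter cells in 96-well format, CellMask signal normalized to DMSO-treated wells set as 1, under 0.5 deemed highly cytotoxic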
[2] = system: HeLa VPS33A R498W KI + HA-SDC1-FLAG; assay: relative GAG core protein HA-SDC1 amount per cell number vs DMSO (fraction of DMSO); higher = more SDC1 (GAG core protein);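 further: HA-SDC1 level read out by In-Cell Western staining with an anti-HA antibody against the N-terminal tag, screening FDA-approved library drugs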
[3] = system: HeLa VPS33A KO + NLuc-VPS33A R498W; assay: relative mutant VPS33A R498W amount (NanoLuc luminescence) vs DMSO (fraction of DMSO); HeLa model of a glycosaminoglycan (GAG) storage disease; KI is knock-in and KO knock-out; SDC1 is syndecan 1; higher = higher mutant VPS33A level;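 further: screen of an FDA-approved drug library, NanoLuc luminescence read after lysing the treated cells, taken as a measure of mutant VPS33A protein stability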

SMILES	relative cell viability [1]	relative GAG core protein HA-SDC1 amount per cell number [2]	relative mutant VPS33A R498W amount [3]
CC(=O)N(c1onc(C)c1C)S(=O)(=O)c1ccc(N)cc1 [Sulfisoxazole Acetyl]	1.02	active: 0.462	0.774
CC(C)C(=O)c1c(C(C)C)nn2ccccc12 [Ibudilast]	0.986	inactive: 0.669	0.609
CCC/C=C1\OC(=O)C2=C1CCC=C2 [Z-Ligustilide]	0.644	active: 0.497	1.24
Cc1ncc([N+](=O)[O-])n1CCO [Metronidazole]	0.951	inactive: 1.04	1.44
CCC(=O)NS(=O)(=O)c1ccc(-c2c(-c3ccccc3)noc2C)cc1 [Parecoxib Sodium]	1.25	inactive: 1.16	0.53
OC[C@H]1O[C@@H](n2cnc3c2N=CNC[C@H]3O)C[C@@H]1O [Pentostatin]	1.25	inactive: 0.851	0.875
CC(C)[C@H](N)C(=O)O [L-Valine]	1.06	inactive: 0.939	1.06
CC(=O)NCCCS(=O)(=O)O [Acamprosate calcium]	1.17	inactive: 1.34	0.938
C[C@@H]1[C@H](O)[C@@H](C)/C=C/C=C/C=C/C=C/C=C/C=C/C=C/[C@H](O[C@@H]2O[C@H](C)[C@@H](O)[C@H](N)[C@@H]2O)C[C@@H]2O[C@](O)(C[C@@H](O)C[C@@H](O)[C@H](O)CC[C@@H](O)C[C@@H](O)CC(=O)O[C@H]1C)C[C@H](O)[C@H]2C(=O)O [Amphotericin B]	1.02	inactive: 0.724	0.964
C=C1CC[C@H](O)C/C1=C/C=C1\CCC[C@]2(C)[C@@H]([C@H](C)CCCC(C)C)CC[C@@H]12 [Vitamin D3]	0.933	inactive: 0.62	0.96

From the supplement of paper PMC12355420
